Measured values from PubChem BioAssay AID686978 (National Center for Advancing Translational Sciences (NCATS), 2013).
Where “and” joins values, the source holds several entries; their conditions need not be identical. Identical values can stand only once. Screen size: about 420,000 compounds; about 64,000 (15%) were called active. The shares of active, inactive and inconclusive entries below differ from those in the screen. Calls come from the whole dose curve; as a rule, active = well fitted inhibition curve with a large enough effect; inconclusive = small, poorly fitted or top-dose-only effect; inactive = flat fitted curve, though single readings scatter. No potency is given beside an inconclusive call; the fits are too rough.
% is set by controls: 0 for no effect and ±100 for the full control effect; potency is the fitted concentration of half-maximal effect; tags give direction and shape of the fitted curve.

Assay: qHTS for Inhibitors of human tyrosyl-DNA phosphodiesterase 1 (TDP1): qHTS in cells in absence of CPT; note: nearly all actives have a fitted effect of over 55% in size
Conditions: DT40 Tdp1-/- hTDP1 cells, no CPT, ATP luminescence, 48 h; activity change, negative = growth inhibition: at 46.2 µM (top of the series) unless noted
Outline: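 A cellular qHTS used chicken DT40 cells lacking endogenous Tdp1 but carrying stably transfected human TDP1. Compounds were applied without camptothecin, and cell growth kinetics were judged by ATP-dependent luminescence after ≥48 hr.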
With `COc1cccc(NC(=O)CNS(=O)(=O)c2ccc3nc(C)sc3c2)c1` the Potency was inconclusive [inhibitor, single point].
In the case of `CCc1ccc(-c2nc(CSCC(=O)NCCCN3CCCC3=O)c(C)o2)cc1`, the Potency is reported as inconclusive [inhibitor, single point].
In the case of `Cc1cc(NCCCN)nc(-c2ccccc2O)n1`, the Potency is reported as inconclusive [inhibitor, single point].
In the case of `COc1cc(NC(=O)COc2ccc(-n3ccnc3)cc2)cc(OC)c1`, the Potency is reported as inconclusive [inhibitor, partial curve].
In the case of `O=C(Nc1ccc(C(=O)N2CCOCC2)cc1)c1cc(-c2cccnc2)nc2ccc(Cl)cc12`, the Potency is reported as active: 2.06 µM.
For `CCOC(=O)c1ccc(N(C(=O)c2ccco2)C(C(=O)NC2CCCC2)c2ccncc2)cc1` (stereo not drawn), the Potency was inconclusive [inhibitor, partial curve].
For `CCCCn1nnnc1C(c1ccccc1)N1CCN(C/C=C/c2ccccc2)CC1` (stereo not drawn), the Potency was active: 16.4 µM.
For `O=C(NCC1CCCO1)c1cc2nc(-c3ccco3)cc(C(F)(F)Cl)n2n1` (stereo not drawn), the “activity change, negative = growth inhibition” value was inactive: -4.72%.
In the case of `Cn1c(=O)c2sccc2n2c(CCCC(=O)Nc3ccc(F)cc3F)nnc12`, the Potency is reported as inconclusive [inhibitor, single point].
For `CCOc1ccccc1NC(=O)c1ccc(F)c(S(=O)(=O)N2CCC3(CC2)OCCO3)c1`, the “activity change, negative = growth inhibition” value was inactive: -23.5%.
In the case of `Cc1ccc(NC(=O)CCC(=O)N/N=C/c2ccc(O)cc2O)cc1`, the Potency is reported as active: 16.4 µM.
For `OC1(c2ccc(Cl)c(C(F)(F)F)c2)CCN(CCCC(c2ccc(F)cc2)c2ccc(F)cc2)CC1`, the Potency was active: 2.99 µM.
With `COC(=O)c1ccc(N(CC(=O)NC2CCCC2)C(=O)CNC(=O)c2ccco2)cc1` the “activity change, negative = growth inhibition” value was inactive: -8.13%.
With `Cc1occc1C(=O)NCc1nc(-c2ccc(Cl)cc2)no1` the “activity change, negative = growth inhibition” value was inactive: -17.3%.
For `COc1ccc(-c2cc(C(=O)NCc3cccc(Cl)c3)[nH]n2)c(C)c1`, the Potency was inconclusive [inhibitor, single point].
In the case of `CCOc1ccc(OCCC(=O)OCC(=O)NNC(=O)c2ccccc2)cc1`, the “activity change, negative = growth inhibition” value is reported as inactive: -11.4%.
In the case of `COCCCNc1ncnc2c1c(-c1ccccc1)cn2-c1ccc(C)c(Cl)c1`, the Potency is reported as inconclusive [inhibitor, single point].
For `CC(=O)Nc1ccc(SCC(=O)Nc2ccc3c(c2)OCCO3)cc1`, the Potency was inconclusive [inhibitor, single point].
For `Cc1ccc(Cn2c(N)nc3ccccc32)cc1`, the Potency was active: 9.2 µM.
With `CCn1c(CN2CCN(c3cccc(Cl)c3)CC2)nc2c1c(=O)[nH]c(=O)n2C` the Potency was active: 18.4 µM.
With `O=C(c1n[nH]c(=O)c2ccccc12)N1CCN(S(=O)(=O)c2ccccc2Cl)CC1` the Potency was inconclusive [inhibitor, single point].
With `CCOCCCNC(=O)c1c[nH]c2cc(C)ccc2c1=O` the “activity change, negative = growth inhibition” value was inactive: -26.3%.
For `Cc1ccc(Cn2nnc3c(=O)[nH]c(C4CCN(S(=O)(=O)Cc5ccccc5)CC4)nc32)cc1`, the Potency was inconclusive [inhibitor, single point].
In the case of `Cc1c(-n2cc(C(=O)O)c(=O)c3cc(F)c(N4CCCC4)c(F)c32)c(=O)n(-c2ccccc2)n1C`, the Potency is reported as active: 23.1 µM.
In the case of `C/C(=N\NC(=O)c1ccccc1)c1ccc(C)c([N+](=O)[O-])c1`, the Potency is reported as inconclusive [inhibitor, partial curve].
With `CC1CCCC(NC(=S)NC(=O)c2ccco2)C1C` (stereo not drawn) the Potency was inconclusive [inhibitor, single point].
In the case of `COc1ccc(C(=O)/C=C/c2ccc(N3CCCCC3)c([N+](=O)[O-])c2)cc1`, the Potency is reported as inconclusive [inhibitor, single point].
In the case of `CCn1c(SCC(=O)c2ccccc2)nnc1-c1cccs1`, the “activity change, negative = growth inhibition” value is reported as inactive: -6.77%.
For `COc1ccc(CNC(=O)c2cc3ccccn3n2)c(OC)c1`, the Potency was inconclusive [inhibitor, single point].
In the case of `COc1ccc(-c2ccc3c(c2)S(=O)(=O)c2cccc(C(=O)NCCOc4ccccc4Cl)c2C3=O)cc1OC`, the Potency is reported as active: 23.1 µM.
For `CCCCN(CC)C(=O)Cn1c(=O)n(-c2ccc(OCC)cc2)c(=O)c2c3c(sc21)CCC3`, the Potency was inconclusive [inhibitor, single point].
For `O=C(NCc1ccco1)c1cccc(S(=O)(=O)N2CCOCC2)c1`, the “activity change, negative = growth inhibition” value was inactive: -0.591%.
In the case of `COc1ccc(CN(C(=O)c2ccc(-c3ccccc3)[nH]2)C(C(=O)NC(C)(C)C)c2ccncc2)cc1` (stereo not drawn), the Potency is reported as inconclusive [inhibitor, single point].
For `CCOc1ccc(CNC(=O)c2ccc(Sc3ccc(C)cc3)c(NC(C)=O)c2)cc1OC`, the Potency was inconclusive [inhibitor, single point].
In the case of `Cc1ccc(C2CC(C(F)(F)F)n3nc(C(=O)NCc4ccco4)cc3N2)cc1` (stereo not drawn), the “activity change, negative = growth inhibition” value is reported as inactive: -26.6%.
For `O=C(c1ccc2c(c1)OCO2)c1cn(Cc2ccc(F)cc2)c2ccccc2c1=O`, the Potency was inconclusive [inhibitor, single point].
For `CCOc1ccc(NC(=O)c2cccc3c2C(=O)N(Cc2cccnc2)C3)cc1`, the Potency was inconclusive [inhibitor, single point].
For `CCCCOc1ccc(CNC(=O)Cn2ncn3c(cc4cc(F)ccc43)c2=O)cc1`, the “activity change, negative = growth inhibition” value was inactive: -12.7%.
In the case of `NNC(=O)c1csc(Cc2c(Cl)sc3ccc(Cl)cc23)n1`, the Potency is reported as inconclusive [inhibitor, single point].
For `Cn1nc(C(=O)N2CCN(c3ccccc3)CC2)c2c1-c1ccccc1SC2`, the “activity change, negative = growth inhibition” value was inactive: 8.91%.
In the case of `COc1ccc(-c2csc(NC(=O)CSc3nc(C)cs3)n2)cc1`, the Potency is reported as inconclusive [inhibitor, partial curve].
In the case of `CCC(C)Sc1cc(-c2nc3ccc(Cl)cn3c2NC2CCCCC2)ccc1OC` (stereo not drawn), the Potency is reported as active: 23.1 µM and active: 14.6 µM.
In the case of `CCOC(=O)c1ccc2c(c1)[nH]c(=S)n2CC`, the Potency is reported as inconclusive [inhibitor, single point].
For `O=c1nc2n(c3ccc(Br)cc13)CCS2`, the Potency was inconclusive [inhibitor, partial curve, poor fit].
For `O=C(CCN1C(=O)[C@@H]2Cc3ccccc3CN2C1=O)N[C@@H](Cc1ccccc1)C(=O)O`, the “activity change, negative = growth inhibition” value was inactive: -0.139%.
For `O=C(O)c1ccc(-c2cccc(Cl)c2)o1`, the “activity change, negative = growth inhibition” value was inactive: -2.96%.
With `CCc1cccc(NC(=S)N(CCCN2CCOCC2)C(C)c2cc3cccc(OC)c3o2)c1` (stereo not drawn) the Potency was inconclusive [inhibitor, single point].
In the case of `CCOc1ccccc1/C=N/n1c(COc2ccccc2)n[nH]c1=S`, the “activity change, negative = growth inhibition” value is reported as inactive: -11.8%.
For `CC(C)(C)NC(=O)/C(=C/c1cccnc1)NC(=O)c1ccco1`, the “activity change, negative = growth inhibition” value was inactive: 2.45%.
With `Cc1ccccc1NC(=O)c1ccccc1O` the activity change, negative = growth inhibition was inconclusive: -31.7% [inhibitor].
For `CN(C)c1ccc(N=Nc2ccccc2C(=O)OCC(=O)N(C)c2ccccc2)cc1`, the Potency was inconclusive [inhibitor, single point].
In the case of `NC(c1csc(Nc2ccccn2)n1)C1CCCCC1` (stereo not drawn), the Potency is reported as active: 16.4 µM.
In the case of `COc1ccc2[nH]c3c(c2c1)CCN1C(=O)C(CC(=O)NCC24CC5CC(CC(C5)C2)C4)C[C@H](C(=O)N2CCOCC2)[C@@]31C` (stereo partly drawn), the Potency is reported as inconclusive [inhibitor, single point].
In the case of `O=C(OCCN1C(=O)CCC1=O)c1ccc(S(=O)(=O)N2CCCCC2)cc1`, the “activity change, negative = growth inhibition” value is reported as inactive: -8.32%.
With `Cc1ccccc1C(=O)Nc1ccc(C(=O)N/N=C/c2ccc(O)cc2)cc1` the Potency was inconclusive [inhibitor, single point].
For `O=C(Nc1ccccc1Cl)c1cc(C2CCCCN2C(=O)CCc2ccccc2)on1` (stereo not drawn), the Potency was inconclusive [inhibitor, single point].
For `O=C(Cc1ccc(Cl)cc1Cl)NCC1(N2CCOCC2)CCCCC1`, the Potency was inconclusive [inhibitor, partial curve].
In the case of `CCC(C)(C)n1nnnc1C(C(C)C)N1CCSCC1` (stereo not drawn), the “activity change, negative = growth inhibition” value is reported as inactive: -10.9%.
With `COCC(=O)N1CCC2(CC1)CN(c1ccncc1)C2` the “activity change, negative = growth inhibition” value was inactive: 3.89%.
With `COc1cc(C(=O)NCCCOC(C)C)ccc1OC1CCN(C(C)=O)CC1` the “activity change, negative = growth inhibition” value was inactive: 3.04%.
In the case of `O=C(Nc1ccc(N2CCOCC2)c(Cl)c1)c1ccco1`, the Potency is reported as inconclusive [inhibitor, single point].
For `O=C(NCc1ccccc1)c1cc(-c2ccncc2)nc2ccccc12`, the Potency was inconclusive [inhibitor, partial curve].
In the case of `COC(=O)CC1(C(=O)OC)Oc2ccc(Br)cc2C(=O)N1c1ccc(Br)cc1Cl` (stereo not drawn), the Potency is reported as active: 4.11 µM.
For `CCC(=O)NC(=S)Nc1ccccc1F`, the “activity change, negative = growth inhibition” value was inactive: -18.1%.
With `O=C(CCc1ccccc1)N1CCN(c2ccc([N+](=O)[O-])cc2)CC1` the Potency was active: 23.1 µM.
For `Cc1sc(NC(=O)C2CCCO2)c(C(N)=O)c1C` (stereo not drawn), the Potency was inconclusive [inhibitor, single point].
In the case of `COc1ccc(Cl)cc1NC(=O)c1c(-c2ccccc2)noc1C`, the Potency is reported as inconclusive [inhibitor, partial curve].
In the case of `O=Cc1cccn1-c1nccc(-c2ccco2)n1`, the “activity change, negative = growth inhibition” value is reported as inactive: -18.2%.
With `CCN(CC)c1nc(Nc2ccccc2)nc(Oc2ccc(=O)n(C)n2)n1` the Potency was inconclusive [inhibitor, single point].
In the case of `Cc1c(F)cccc1NC(=O)C1CCCN1S(=O)(=O)c1ccc(F)cc1` (stereo not drawn), the Potency is reported as inconclusive [inhibitor, partial curve].
For `Cc1ccn2c(C(=O)NNC(=O)Nc3ccc(Cl)cc3)c(C)nc2c1`, the “activity change, negative = growth inhibition” value was inactive: 1.39%.
For `COc1ccccc1C(=O)Nc1ccc(Oc2ncnc3sc(-c4ccccc4)cc23)cc1`, the Potency was inconclusive [inhibitor, single point].
For `CCN1C(=O)/C(=C\N2CCN(c3ccccc3)CC2)SC1=S`, the Potency was inconclusive [inhibitor, partial curve, poor fit].
